SMILES strings stand for the structures. Some of the results follow.

The assay relates to T1, C. trachomatis L2/434/Bu expressing GFP (CTL2-GFP).
T1 construct: L2/434/Bu GFP intracellular growth in HeLa cells
The arrangement: species or system HeLa; C. trachomatis total inclusion area by high-content imaging, normalised to DMSO. The following applies: total inclusion area; 28.5 h, 10 µM; inhibitor. Put shortly: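 Post-fluorescence-read fixation, DNA staining with Hoechst and high-content imaging; GFP inclusion area and number per well, and nuclei counts, used as proxies for bacterial growth and host viability.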
As for `Cc1cc(C)nc(-n2ncc(C#N)c2NC(=O)c2ccccc2)n1` [CBK288135], the “% of control remaining” value worked out at 91.9828.

Turning to `Cc1cc(CN(C)Cc2cnn(-c3ccc(Cl)cc3)c2)n[nH]1` [CBK281912], the “% of control remaining” value was determined as 84.5007.

Turning to `CCCSc1nc2cc(C(=O)OC)ccc2c(=O)n1CC1CCCO1` (stereo not drawn) [CBK306031], the “% of control remaining” value came to 59.6907.

`Cc1cnc(NC(=O)C(C)Oc2ccccc2)s1` (stereo not drawn) [CBK288250]: the “% of control remaining” value is reported as 102.684.

Take `Clc1cc(Nc2ccc3[nH]ccc3c2)n2nccc2n1` [CBK037009]: the “% of control remaining” value came to 68.8516.

On to `CC(=O)Nc1cccc(NC(=S)Nc2ccc(S(N)(=O)=O)cc2)c1` [CBK267091], for which the “% of control remaining” value was 91.4312.

In the case of `CN(C)S(=O)(=O)N1CCN(c2ccc([N+](=O)[O-])c(NCCc3ccccc3)c2)CC1` [CBK266498], the “% of control remaining” value is 115.405.

For `COc1cccc(C2CC(=O)Nc3n[nH]cc32)c1OC` (stereo not drawn) [CBK287889], the “% of control remaining” value is given as 105.132.

With `CN1CCN(C2CC(=O)N(c3ccc(Oc4ccccc4)cc3)C2=O)CC1` (stereo not drawn) [CBK265434], the “% of control remaining” value was determined as 101.014.

As to `O=[N+]([O-])c1ccc(S(=O)(=O)Nc2nnc(C3CCCCC3)s2)cc1` [CBK200049], the “% of control remaining” value was 121.296.

Regarding `CC(=O)N1CCc2c(c3cccc(Br)c3n2Cc2ccccc2)C1` [CBK024402], the “% of control remaining” value is 102.25.

In the case of `c1cnc(-c2ccoc2)c(NCCCN2CCOCC2)n1` [CBK036631], the “% of control remaining” value amounted to 98.7755.

In the case of `Cc1nn(C)c(C)c1-c1ccnc(NCCC2(O)CCN(C)CC2)n1` [CBK307659], the “% of control remaining” value came out at 58.9031.

For the compound `CCCCn1c(=O)c(C(=O)Nc2ccccc2S(N)(=O)=O)c(O)c2ccccc21` [CBK262260], the “% of control remaining” value came out at 94.9755.

Take `Cc1ccc(OCC(=O)Nc2ccc3c(c2)C(=O)Nc2ccccc2O3)cc1` [CBK287660]: the “% of control remaining” value was 122.45.

With `CSc1ccc(-n2ncc(-c3ccc(Cl)cc3)n2)cc1` [CBK112782], the “% of control remaining” value stood at 73.0475.

For the compound `O=C(Nc1cc2cccnc2c(Br)n1)Nc1ccc(F)cc1C(F)(F)F` [CBK063287], the “% of control remaining” value stood at 106.311.

Take `CNC(=O)c1c(NC(=O)c2nc(SCc3ccccc3)ncc2Cl)sc2c1CCCC2` [CBK269087]: the “% of control remaining” value came to 122.621.

Turning to `O=C(Nc1ccccc1)c1ccc(S(=O)(=O)N2CCC(C(=O)O)CC2)cc1` [CBK267806], the “% of control remaining” value is 111.273.

On to `CN(C)C(=O)C1(c2ccccc2)CCNC1` (stereo not drawn) [CBK023394C], for which the “% of control remaining” value came out at 68.9542.

As to `CC(C)(C)NC(=O)CSc1nnc(Cc2cccc3ccccc23)n1-c1ccccc1` [CBK266039], the “% of control remaining” value came out at 106.757.

For the compound `C=C(Br)Cn1c(COc2cccc3ccccc23)nc2ccccc21` [CBK263373], the “% of control remaining” value was determined as 80.1393.

On to `O=C(CN1CCOCC1)Nc1ccc(Br)cc1[N+](=O)[O-]` [CBK267314], for which the “% of control remaining” value came out at 90.3282.

For `CC(=O)N1CCN(CCNc2ncnc3sc4c(c23)CCC(C)C4)CC1` (stereo not drawn) [CBK304897], the “% of control remaining” value is reported as 111.362.

On to `COc1cc(CN2CCN(c3cc(C)ccc3C)CC2)ccc1OCc1ccccc1` [CBK261898], for which the “% of control remaining” value is 96.5154.

Take `COCC(=O)N1CCN(C(=O)N2CCOCC2)C[C@@H]1C(=O)OC` [CBK289613]: the “% of control remaining” value was 101.723.

`COc1ccccc1OCC(=O)N1CCC(Cn2cncn2)(C2CCCCC2)CC1` [CBK136797]: the “% of control remaining” value is 97.417.

As for `Cc1c(S(=O)(=O)Nc2nnc(C(F)(F)F)s2)sc2ccc(Cl)cc12` [CBK062018], the “% of control remaining” value worked out at 105.954.

For the compound `CCc1nc2c(N3CCC(n4nc(C)cc4C)C3)ncnc2o1` (stereo not drawn) [CBK306785], the “% of control remaining” value is listed as 22.7247.

Consider `CN1CCN(C(=O)c2cccc(-n3cccn3)c2)C(c2ccccc2)C1` (stereo not drawn) [CBK282013], for which the “% of control remaining” value is recorded as 105.02.

Regarding `O=C(Nc1cccc(Cl)c1)N1CCCC(c2nc(-c3ccccc3)c3ccccn23)C1` (stereo not drawn) [CBK047233], the “% of control remaining” value stood at 100.401.

Consider `O=C1NCCc2c1[nH]c1c(Cl)cccc21` [CBK015762], for which the “% of control remaining” value is 87.1886.

`O=C(CCn1c(-c2ccccc2)c(-c2ccccc2)c2ccccc21)N/N=C/c1ccccc1O` [CBK262353]: the “% of control remaining” value amounted to 11.3679.

For `CCC1CN(C(C)=O)CCC1NCc1ccc(OCC(N)=O)cc1` (stereo not drawn) [CBK305168], the “% of control remaining” value is given as 52.7919.

For `O=S(=O)(c1ccc(Cl)cc1)c1ccc2ccnc(N3CCCNCC3)c2c1` [CBK036416C], the “% of control remaining” value was 103.115.

On to `CC(C)CN(C)CC(=O)NC1(c2ccccc2)CCC1` [CBK067455T], for which the “% of control remaining” value amounted to 117.401.

As for `COc1ccc(CN2C(=O)CO[C@H]3CN(C(=O)COc4ccccc4)C[C@H]32)cc1` [CBK289262], the “% of control remaining” value is 91.3475.

For the compound `Cc1ccc(-c2nnc(CN3C(=O)C4(CC(=O)N(Cc5ccccc5)C4=O)c4ccccc43)o2)cc1` (stereo not drawn) [CBK075749], the “% of control remaining” value is listed as 93.8187.

`Nc1ncc(Br)nc1N[C@@H](CO)c1ccccc1` [CBK074321]: the “% of control remaining” value was found to be 89.5871.

As for `CCn1c2cc(C)sc2c2cnn(CC(=O)NC3CC3)c(=O)c21` [CBK284170], the “% of control remaining” value is 89.2025.

Consider `CCCN1CC(NS(=O)(=O)c2cc(-n3cccn3)ccc2C)CC1=O` (stereo not drawn) [CBK306835], for which the “% of control remaining” value is 80.766.

Regarding `OC12CCCCC1CN(CC1=Cc3ccccc3OC1)CC2` (stereo not drawn) [CBK282954], the “% of control remaining” value was 75.3299.

As to `O=C1CN(Cc2ccc(Cl)cc2)CCO1` [CBK023036C], the “% of control remaining” value was found to be 37.0832.

`COC(=O)c1c(NC(=S)NCc2cccnc2)sc(C)c1C` [CBK267029]: the “% of control remaining” value was determined as 107.784.

Regarding `CSCCCNC(=O)N1CCN(Cc2ccccc2)CC1` [CBK155623], the “% of control remaining” value is 82.7176.

With `FC(F)(F)c1cccc(NC(=S)Nc2ccc(Cc3ccncc3)cc2)c1` [CBK267251], the “% of control remaining” value is recorded as 107.551.

On to `NC(=O)Nn1c(CCC(=O)O)ccc1-c1cccs1` [CBK266019], for which the “% of control remaining” value is on record as 107.218.

Take `O=C(N/N=C/c1cccc(OC(=O)c2cccc(Br)c2)c1)c1ccncc1` [CBK262249]: the “% of control remaining” value amounted to 78.217.

On to `Cc1ccc([N+](=O)[O-])cc1NC1OC(C(O)CO)C(O)C1O` (stereo not drawn) [CBK262031], for which the “% of control remaining” value was 116.356.

As for `CCOc1cccc(-c2cncc(N3CCN(c4ccccn4)CC3)n2)c1` [CBK065985], the “% of control remaining” value is given as 81.7824.

As for `Cc1nc(NS(=O)(=O)c2c(C)noc2C)sc1C(=O)N1CCOCC1` [CBK050574], the “% of control remaining” value is 106.883.

The values above are taken from publication PMC12040169 (PLOS Biology, 2025).
